Laboratory results: the BET-seq Pho4 binding data (Le et al. 2018)
The list shows a part of the results. These are noisy estimates, calculated here from bound and input reads.

What follows are sequences tested against T1, Pho4 (S. cerevisiae) (UniProt P07270) (assay: relative binding free energy (BET-seq); higher = weaker binding). Conditions: reference: library average.
T1 sequence: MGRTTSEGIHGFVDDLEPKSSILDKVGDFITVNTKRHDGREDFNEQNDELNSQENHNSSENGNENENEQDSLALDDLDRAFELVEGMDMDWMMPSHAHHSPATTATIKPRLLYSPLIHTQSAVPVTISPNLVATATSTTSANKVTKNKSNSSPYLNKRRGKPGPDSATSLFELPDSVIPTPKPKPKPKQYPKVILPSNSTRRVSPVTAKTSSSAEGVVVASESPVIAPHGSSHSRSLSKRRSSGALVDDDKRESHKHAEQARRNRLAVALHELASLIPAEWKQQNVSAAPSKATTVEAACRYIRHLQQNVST

Sequence	relative binding free energy [kcal/mol]
TATTGCACGTGGTGTT	-0.04
CTACGCACGTGGAGGG	-0.15
GGGGCCACGTGTATTT	0.05
TTCTTCACGTGTTCTG	0.39
GAATACACGTGGTGTG	-0.05
GTGGCCACGTGGTTTA	0
ACGTTCACGTGTTGGC	0.27
GGAGGCACGTGAATGG	0.21
CATGTCACGTGATCGG	0.19
TCGTACACGTGGTAGA	0.13
TTAATCACGTGTATCT	0.1
TTGGTCACGTGCACGG	0.09
TTGCTCACGTGTGATA	0.21
AATATCACGTGTAGTA	0.07
TTTGCCACGTGTAGTA	0.09
TAGGTCACGTGGCTTA	0
GGCTGCACGTGTGGCA	0.11
AATTTCACGTGTTTGC	0.13
ATGGGCACGTGTTTGA	-0.1
CGGTTCACGTGTAATA	0.32
TCTCGCACGTGGAGTG	-0.08
AGTCTCACGTGGGTTG	-0.01
TGTTGCACGTGGTATT	-0.08

Sequence	relative binding free energy [kcal/mol]
AAGTTCACGTGGTGTT	0.17
TTGAGCACGTGTCTAT	-0.14
CTGTTCACGTGTGGTT	0.28
GGTTACACGTGTTGTA	0.2
TTAGACACGTGGAAGT	0.08
TATTACACGTGTACGT	-0.04
TTATTCACGTGTAAGA	0.29
GAGGTCACGTGTCTGT	0.16
CAGTCCACGTGTGGGT	-0.03
TGTACCACGTGATATG	0.18
ATATTCACGTGAGTAG	0.36
AGGTTCACGTGGTCGG	0.19
GTGTTCACGTGAGATC	0.35
GGTGGCACGTGTTCGT	-0.06
TGTATCACGTGGTGTG	0.04
AAAGTCACGTGTTATT	0.08
GAGTGCACGTGGCGGG	-0.16
ATGGCCACGTGGTCTT	-0.13
GGCGGCACGTGTTAAG	0.02
CGTGGCACGTGTGAGG	-0.05
GATATCACGTGGTTAG	0.26
CTTTTCACGTGTAGAT	0.37
CGGTTCACGTGATGGC	0.33

Sequence	relative binding free energy [kcal/mol]
TATGTCACGTGTTCAG	-0.03
GCGGGCACGTGTATGA	-0.01
GGGGGCACGTGCCTGG	-0.22
GTGATCACGTGGAGGT	0.09
ATGTCCACGTGTGCGG	-0.03
ATGGGCACGTGTCGCG	-0.06
GTATTCACGTGAGGCG	0.28
TGGGGCACGTGCTATA	-0.27
TGTCGCACGTGCGTTA	-0.19
GTTTTCACGTGTGCAT	0.32
TAAGTCACGTGGAAAT	0.09
TGAAGCACGTGATGGC	0.03
AGGGCCACGTGAGGGG	0.06
TAATGCACGTGTGGTC	0
TAAGGCACGTGCGGTG	-0.1
AATTGCACGTGGTAAA	0.11
ACGGGCACGTGTGTCG	-0.02
GTGATCACGTGCTGTA	0.1
GCGGTCACGTGGCTGT	-0.06
TGGGTCACGTGGCCGT	-0.02
TGGATCACGTGTGCGT	0.17
CTGAACACGTGTGGGT	0
TTTCGCACGTGTTTGT	0.04

Sequence	relative binding free energy [kcal/mol]
GGGATCACGTGATTCG	0.42
GCGATCACGTGGGGTA	0.07
ATTTGCACGTGTTGAG	0.14
AAGTGCACGTGGTCGG	-0.13
ATAAGCACGTGGGTTT	-0.27
GTTAGCACGTGGGAGG	-0.07
GATTGCACGTGCCGGG	-0.02
GATGTCACGTGGGCAG	-0.13
GCTGGCACGTGGTGTT	-0.11
CAATGCACGTGTGTTT	0.12
GTTAACACGTGTTAGT	0.04
CGTATCACGTGGAATG	0.11
AGTTTCACGTGCTGTG	0.28
TATCGCACGTGATTTA	0.03
AAAGACACGTGGTTGT	0.03
TTTCGCACGTGAGGAT	0.09
GTAGGCACGTGTGAGA	0.04
GGGTACACGTGGGGAT	0.02
AGGGACACGTGCGGAG	0
CGAGACACGTGTGTTG	0.05
AGTTTCACGTGGGTAT	0.08
GACGGCACGTGTTGGT	0.09
TGGGGCACGTGCAGAG	-0.14

Sequence	relative binding free energy [kcal/mol]
GCATGCACGTGAGGTA	0.31
GAGTTCACGTGAGTTA	0.39
TAGCGCACGTGCGTGT	-0.22
AAGTTCACGTGAGGGG	0.35
TGTAGCACGTGGACGT	-0.09
GGGGTCACGTGTCGGC	0.19
AATATCACGTGAGTAT	0.19
ATTGGCACGTGGTGAA	-0.02
TATGTCACGTGAGGTT	0.33
TATGCCACGTGGCTGG	-0.17
ACGGGCACGTGTTAGA	-0.1
ATGGGCACGTGGAGAT	-0.08
GTTAACACGTGGCGTG	-0.03
TTGCGCACGTGTTGTC	-0.19
GGTGACACGTGTGTAC	0.06
TGCCTCACGTGTTGTT	0.15
ATGAACACGTGGGGGG	-0.03
GATGTCACGTGAGTGT	0.34
TAGCACACGTGGGGTG	-0.18
TCGTTCACGTGGTGTG	0.14
GTAGGCACGTGTTCAA	0.13
GAGCTCACGTGGGGGG	0.15
TTTAGCACGTGCCGGG	-0.18
